# In paper PMC4336329 (PLoS ONE, 2015):
# Out of some 310,000 compounds screened, about 14,000 (4.5%) showed an effect of 50% or more. Effects have a minus sign here. The list shows a part of the results.
# Target: human ether-à-go-go-related gene (hERG) potassium channel (human, UniProt Q12809)
# Experiment: primary screen, population patch clamp on CHO cells stably expressing hERG
# 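Note: peak tail current of the secondary pulse compared with the same well before compound.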
# human ether-à-go-go-related gene (hERG) potassium channel, sequence (Q12809 whole entry, looked up): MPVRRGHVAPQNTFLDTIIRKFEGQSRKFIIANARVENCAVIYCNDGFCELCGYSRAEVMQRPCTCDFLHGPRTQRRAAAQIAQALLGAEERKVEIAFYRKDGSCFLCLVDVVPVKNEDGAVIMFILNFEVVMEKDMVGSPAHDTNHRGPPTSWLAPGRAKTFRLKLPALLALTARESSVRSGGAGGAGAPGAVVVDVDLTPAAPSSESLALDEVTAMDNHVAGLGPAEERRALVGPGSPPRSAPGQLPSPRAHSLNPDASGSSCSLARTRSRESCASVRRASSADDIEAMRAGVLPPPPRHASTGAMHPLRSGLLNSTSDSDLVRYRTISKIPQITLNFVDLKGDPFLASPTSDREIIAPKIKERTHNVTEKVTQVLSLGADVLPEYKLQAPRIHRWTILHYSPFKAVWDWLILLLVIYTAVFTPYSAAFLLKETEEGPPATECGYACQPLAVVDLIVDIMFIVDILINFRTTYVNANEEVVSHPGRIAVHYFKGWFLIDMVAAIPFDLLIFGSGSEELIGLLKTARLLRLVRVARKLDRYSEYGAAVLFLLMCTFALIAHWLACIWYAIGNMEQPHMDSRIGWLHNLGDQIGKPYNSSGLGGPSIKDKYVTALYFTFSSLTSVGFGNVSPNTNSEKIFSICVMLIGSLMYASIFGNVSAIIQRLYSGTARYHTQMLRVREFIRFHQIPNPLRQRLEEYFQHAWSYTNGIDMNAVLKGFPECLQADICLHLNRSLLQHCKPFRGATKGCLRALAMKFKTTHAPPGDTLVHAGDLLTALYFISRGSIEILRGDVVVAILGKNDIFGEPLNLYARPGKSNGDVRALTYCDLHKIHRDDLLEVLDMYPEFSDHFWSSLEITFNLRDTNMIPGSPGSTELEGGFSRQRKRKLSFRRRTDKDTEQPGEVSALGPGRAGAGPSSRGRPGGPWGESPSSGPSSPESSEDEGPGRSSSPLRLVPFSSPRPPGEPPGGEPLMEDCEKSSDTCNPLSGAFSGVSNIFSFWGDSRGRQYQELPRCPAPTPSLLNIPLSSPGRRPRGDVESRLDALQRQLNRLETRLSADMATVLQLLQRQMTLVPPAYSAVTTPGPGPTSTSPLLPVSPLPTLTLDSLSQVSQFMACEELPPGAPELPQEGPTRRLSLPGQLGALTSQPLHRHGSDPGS
row,Compound,"hERG current change (%, negative = inhibition) at 10uM [%]"
1,O=C(CSc1ccccc1C(=O)O)c1ccccc1,13.8
2,Cc1ccc2nc(NCCCNC(=O)c3cnccn3)c(C#N)cc2c1,-5.49
3,COc1ccc(CN2[C@@H](CC(C)=O)c3ccc(/C=C/C(C)=O)cc3S2(=O)=O)cc1,-30
4,O=C(CSc1ccccc1)NCC(c1ccco1)N1CCCCC1 (stereo not shown),-13.9
5,CN(C(=O)c1cccc(COc2ccc(Cl)cc2Cl)c1)c1ccccc1,7.35
6,CC(=O)c1cccc(NC(=O)NCc2cccs2)c1,-1.72
7,Cc1nnc2ccc(N3CCN(C(=O)c4ccccc4)CC3)nn12,-0.844
8,CC(Sc1nc(-c2ccccc2)cc(=O)[nH]1)C(=O)O (stereo not shown),11.4
9,CCCCNC(=O)c1c(CSc2ccc(Cl)cc2)noc1C(=O)NCc1ccccc1,11.1
10,N#Cc1cc2c(nc1SCC(=O)NCc1ccc3c(c1)OCO3)CCCCC2,-11.3
11,Cc1ccc2oc(=O)c3cnn(CC(=O)N(CCC(C)C)Cc4ccco4)c3c2c1,-12.5
12,COc1ccccc1C(=O)NC(=O)COC(=O)c1ccc(NC(=O)CC#N)cc1,15.3
13,CN1C(=O)c2ccccc2C(C(=O)O)C1c1cn(C)c2ccccc12 (stereo not shown),17.6
14,O=C(NCCNc1nccc(C(F)(F)F)n1)c1cccc(C(F)(F)F)c1,-8.47
15,COc1cccc(CNC(=O)C2CCC(CNc3c(N4CCC(C)CC4)c(=O)c3=O)CC2)c1 (stereo not shown),2.37
16,COc1ccc(CCNC(=O)CNS(=O)(=O)c2cccs2)cc1OC,-2.17
17,Cc1cc(C(C)(C)C)c(O)c(C)c1CC1=NCCN1.Cl,0.581
18,c1ccc(Nc2nc(-c3ccncc3)nc3ccccc23)cc1,-0.628
19,COC(=O)COc1cccc(NC(=O)c2cc(OC)cc(OC)c2)c1,-0.7
20,CN1CCN(c2nc(-c3ccncc3)nc3ccccc23)CC1,-67.4
21,COc1cc(/C=C/c2nc(N)nc(-c3ccccc3O)n2)cc(OC)c1OC,-3.86
22,Cc1cc(OCC(=O)Nc2ccc3c(c2)OCCO3)cc(C)c1Cl,-5.18
23,O=C(OCC(=O)N1CCN(C(=O)c2ccco2)CC1)c1ccccc1NCCO,12.6
24,CCOC(=O)c1cccnc1SCC(=O)NCc1ccccc1,-2.75
25,CN(C(=O)COC(=O)c1ccc[nH]c1=O)C1CCCCC1,34.6
